# ± gives the standard deviation of the averaged measurements. The list shows a part of the results.
# System: PfAP2-I AP2 domain 3 (GST-tagged)
# Assay: gcPBM binding intensity (ln(normalized median fluorescence intensity)); higher = stronger DNA binding
# In short: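 Binding intensity is defined as the maximum Masliner-normalised natural-log median intensity across replicate spots for either probe orientation. It was measured on an Agilent 4 × 180k array of primer-extended double-stranded 36-bp intergenic genomic probes and negative controls, to which GST-tagged P. falciparum DNA-binding domains made in E. coli were applied for 1 h in 1× PBS with 1% milk, 0.2 mg/ml BSA, 0.5% salmon testes DNA and 0.03% Triton X-100. Detection was by Alexa488 anti-GST antibody and scanning at 488 nm.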
row,Sequence,gcPBM binding intensity (ln)
1,TTTACAAAAAATTATACACACACGTACATATAAATA [CACACA_site945],7.85 ± 0.28
2,TAATTTATGAGTAATACACACACTTGTGGATATATT [CACACA_site3790],7.66 ± 0.49
3,GAAAAATTTTTATATGTGCACATGTTATATATAATT [GTGCAC_site9742],9.46 ± 0.62
4,AAATATTATTTATTTACACACCAATCTTCTTTTCTT [CACACA_site3990],7.72 ± 0.64
5,TACGTTCTAATATATACACACCTGGTATTAATTATG [CACACA_site5260],7.81 ± 0.49
6,AAAAACTTAATATTCACACATATATATATATATATA [CACACA_site5240],9.38 ± 0.53
7,CGTATATATATATACACACACATATATATATGTAAA [CACACA_site195],7.84 ± 0.47
8,TATTTCCATTCATAATTTTGTAGAATATATAACCGT [CACACA_negctrl_site1531],7.64 ± 0.59
9,AAAAAAAAAAATTACACACATACATATAATAATAAT [CACACA_site2193],7.59 ± 0.65
10,GGTAATTTTTTTTAAATACACACTGAAATGTGAATT [CACACA_site564],8.01 ± 0.33
11,AACATACATAAACACACACACACACCCACAGAGACA [CACACA_site4430],8.32 ± 0.22
12,AAAAAAATAAGTATTGAACAATTAAGGAAAAACATG [GTGCAC_negctrl_site464],8 ± 0.56
13,CTTATAAAAAAAAAAACATGCAACAGTAAAGAACAA [TGCATGCA_site892],8.13 ± 0.85
14,CATACAGATATATATACACACATACAGATAAATACA [CACACA_site4592],8.03 ± 0.042
15,GGAATAGTAATATATACACACAAATACAGATATATA [CACACA_site4213],7.66 ± 0.43
16,AATTGAATTTTAAAAGAAAAAAAAAAAAAAAAATAA [XGTACX_negctrl_site195],7.74 ± 0.32
17,TGGAGGTCAGTTCACAGTACCCAGAAACTCTACGGA [XGTACX_site4927],7.47 ± 0.63
18,TTTTTTCAATTTTTTTTAAATAAACCACAAAAAAAA [CACACA_negctrl_site1701],7.74 ± 0.49
19,AAACTATAATATATTACACACATATATTTTATAAGT [CACACA_site6460],7.69 ± 0.44
20,TAATGTAAAATTTAGAGTACATAAAAAATTGGATGA [XGTACX_site7225],7.82 ± 0.71
21,AAATAAAAAAAGAAACGTACATATATTGGTTTCGTC [XGTACX_site3510],7.85 ± 0.54
22,AATAAATAAATATATACACACATATCTGTCTACATA [CACACA_site5708],7.63 ± 0.53
23,AATAATTGAAAAACACAAAAATGATTTTCCATAAAT [CACACA_negctrl_site1555],7.34 ± 0.69
24,GTAAAAAAATAGCACACACACAAAAACACGCACAAA [CACACA_site6723],8.94 ± 0.071
